# Reference: the supplement of paper PMC12217912
# Some of the results follow. The full chains were built here from the parent and the listed change. Inactive controls read about 0.05.
# B1: TEV protease; numbered along this chain (parent)
# chain: MGESLFKGPRDYNPISSSICHLTNESDGHTTSLYGIGFGPFIITNKHLFRRNNGTLVVQSLHGVFKVKDTTTLQQHLVDGRDMIIIRMPKDFPPFPQKLKFREPQREERICLVTTNFQTKSMSSMVSDTSCTFPSGDGIFWKHWIQTKDGQCGSPLVSTRDGFIVGIHSASNFTNTNNYFTSVPKNFMELLTNQEAQQWVSGWRLNADSVLWGGHKVFMVKPEEPFQPVKEATQL
# Variants of: B1
# Assay: raw area under fraction-flipped curve 0-4 h after induction (AUC4h, not background-subtracted), DNA-recorder readout of cleavage of the substrate (dimensionless); higher = more cleavage of the substrate by the protease variant
# Details: temperature: 34 °C; time window: 0-4 h after rhamnose induction
# 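Further: Bxb1 expression induced with 0.2% (w/v) L-rhamnose at OD600 near 0.5, cultures sampled hourly, flipped fraction per protease–substrate barcode pair counted by paired-end Illumina sequencing.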
Variant,area with substrate ENLYEQS,area with substrate ENLYGQS,area with substrate ENLYIQS,area with substrate ENLYKQS,area with substrate ENLYMQS,area with substrate ENLYNQS,area with substrate ENLYPQS,area with substrate ENLYQQS,area with substrate ENLYRQS,area with substrate ENLYSQS,area with substrate ENLYWQS,area with substrate ENLYHQS,area with substrate ENLYTQS,area with substrate ENLYYQS,area with substrate ENLYVQS,area with substrate ENLYLQS
MGESLFKGPRDYNPISSSICHLTNESDGHTTSLYGIGFGPFIITNKHLFRRNNGTLVVQSLHGVFKVKDTTTLQQHLVDGRDMIIIRMPKDFPPFPQKLKFREPQREERIKLVTTNFQTKSMSSMVSDTSCTFPSGDGIFWKHWIQTKDGQCGSPLVSTRDGFIVGIHSASNFTNTNNYFTSVPKNFMELLTNQEAQQWVSGWRLNADSVLWGGHKVFMVKPEEPFQPVKEATQL [C111K],0.0757,0.0687,0.14,0.068,0.0721,0.0809,0.0779,0.076,0.0753,0.0855,0.134,–,–,–,–,–
MGESLFKGPRDYNPISSSICHLTNESDGHTTSLYGIGFGPFIITNKHLFRRNNGTLVVQSLHGVFKVKDTTTLQQHLVDGRDMIIIRMPKDFPPFPQKLKFREPQREERICLVTTNMQTKSMSSMVSDTSCTFPSGDGIFWKHWIQTKDGQCGSPLVSTRDGFIVGIHSASNFTNTNNYFTSVPKNFMELLTNQEAQQWVSGWRLNADSVLWGGHKVFMVKPEEPFQPVKEATQL [F117M],0.0762,–,0.169,–,–,0.0901,0.0675,0.0485,0.0574,–,0.0711,0.0634,0.0575,0.0528,–,–
MGESLFKGPRDYNPISSSICHLTNESDGHTTSLYGIGFGPFIITNKHLFRRNNGTLVVQSLHGVFKVKDTTTLQQHLVDGRDMIIIRMPKDFPPFPQKLKFREPQREERICLVTTNFQTKSMSSMVSHTSCTFPSGDGIFWKHWIQTKDGQCGSPLVSTRDGFIVGIHSASNFTNTNNYFTSVPKNFMELLTNQEAQQWVSGWRLNADSVLWGGHKVFMVKPEEPFQPVKEATQL [D128H],0.0561,0.094,0.121,0.0672,0.127,0.074,0.0804,0.0601,–,0.081,0.08,0.0728,–,0.0517,0.151,–
MGESLFKGPRDYNPISSSICHLTNESDGHTTSLYGIGFGPFIITNKHLFRRNNGTLVVQSLHGVFKVKDTTTLQQHLVDGRDMIIIRMPKDFPPFPQKLKFREPQREERICLVTTNFQTKSMSSMVSDTSCTFPSGDGIMWKHWIQTKDGQCGSPLVSTRDGFIVGIHSASNFTNTNNYFTSVPKNFMELLTNQEAQQWVSGWRLNADSVLWGGHKVFMVKPEEPFQPVKEATQL [F140M],0.0738,–,–,0.0612,0.0789,0.0715,–,–,0.0448,0.0526,0.0565,–,–,–,0.106,–
MGESLFKGPRDYNPISSSICHLTNESDGHTTSLYGIGFGPFIITNKHLFRRNNGTLVVQSLHGVFKVKDTTTLQQHLVDGRDMIIIRMPKDFPPFPQKLKFREPQREERICLVTTNFQTKSMSSMVSDTSCTFPSGDGIFWKHLIQTKDGQCGSPLVSTRDGFIVGIHSASNFTNTNNYFTSVPKNFMELLTNQEAQQWVSGWRLNADSVLWGGHKVFMVKPEEPFQPVKEATQL [W144L],0.0532,0.0618,–,–,0.0826,–,0.07,–,–,0.0765,–,0.0681,–,–,–,0.0829
MGESLFKGPRDYNPISSSICHLTNESDGHTTSLYGIGFGPFIITNKHLFRRNNGTLVVQSLHGVFKVKDTTTLQQHLVDGRDMIIIRMPKDFPPFPQKLKFREPQREERICLVTTNFQTKSMSSMVSDTSCTFPSGDGIFWKHWIQTKDGQCGSPLVSTRDGFIVGIHAASNFTNTNNYFTSVPKNFMELLTNQEAQQWVSGWRLNADSVLWGGHKVFMVKPEEPFQPVKEATQL [S169A],0.103,0.066,–,–,0.0866,0.0813,0.0564,0.0603,0.0626,–,0.0608,0.0629,0.0653,0.0515,0.122,–
MGESLFKGPRDYNPISSSICHLTNESDGHTTSLYGIGFGPFIITNKHLFRRNNGTLVVQSLHGVFKVKDTTTLQQHLVDGRDMIIIRMPKDFPPFPQKLKFREPQREERICLVTTNFQTKSMSSMVSDTSCTFPSGDGIFWKHWIQTKDGQCGSPLVSTRDGFIVGIHSAGNFTNTNNYFTSVPKNFMELLTNQEAQQWVSGWRLNADSVLWGGHKVFMVKPEEPFQPVKEATQL [S171G],0.0549,0.0644,–,0.0764,0.0474,–,–,0.0776,–,0.0633,–,–,–,–,–,–
MGESLFKGPRDYNPISSSICHLTNESDGHTTSLYGIGFGPFIITNKHLFRRNNGTLVVQSLHGVFKVKDTTTLQQHLVDGRDMIIIRMPKDFPPFPQKLKFREPQREERICLVTTNFQTKSMSSMVSDTSCTFPSGDGIFWKHWIQTKDGQCGSPLVSTRDGFIVGIHSASNFTNTNNYFTSVPKNFMDLLTNQEAQQWVSGWRLNADSVLWGGHKVFMVKPEEPFQPVKEATQL [E189D],0.0781,0.0811,0.122,0.0552,–,0.0576,0.0644,–,0.0712,0.0678,–,0.0688,–,–,0.118,–
MGESLFKGPRDYNPISSSICHLTNESDGHTTSLYGIGFGPFIITNKHLFRRNNGTLVVQSLHGVFKVKDTTTLQQHLVDGRDMIIIRMPKDFPPFPQKLKFREPQREERICLVTTNFQTKSMSSMVSDTSCTFPSGDGIFWKHWIQTKDGQCGSPLVSTRDGFIVGIHSASNFTNTNNYFTSVPKNFMILLTNQEAQQWVSGWRLNADSVLWGGHKVFMVKPEEPFQPVKEATQL [E189I],0.063,0.0598,0.0852,0.058,–,–,0.0695,–,–,0.0753,–,0.0655,–,0.0722,0.11,0.0839
MGESLFKGPRDYNPISSSICHLTNESDGHTTSLYGIGFGPFIITNKHLFRRNNGTLVVQSLHGVFKVKDTTTLQQHLVDGRDMIIIRMPKDFPPFPQKLKFREPQREERICLVTTNFQTKSMSSMVSDTSCTFPSGDGIFWKHWIQTKDGQCGSPLVSTRDGFIVGIHSASNFTNTNNYFTSVPKNFMELLDNQEAQQWVSGWRLNADSVLWGGHKVFMVKPEEPFQPVKEATQL [T192D],0.0646,0.0906,–,0.0607,0.0702,0.0705,–,0.0644,0.0451,0.0778,–,–,0.086,–,0.109,0.0644
